Measured values: the supplement of paper PMC9446081
About 220 (0.56%) of roughly 39,000 compounds showed activity. The list shows a part of the results.

Test system: Escherichia coli K-12 BW25113
Assay: relative growth (OD600 normalised to plate interquartile mean) (fraction); higher = less growth inhibition, active = 0.2 or less
Details: 50 µM; LB; incubation time: overnight (16-24 h)
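Note: static incubation at 37 °C against the wild-type strain, values averaged over two biological replicates.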

Compound	relative growth
Cc1cccc(C)c1NC(=O)[C@@H](C)N	inactive: 0.973
CCCC(=O)Nc1ccc2c(c1)OC[C@@H](C)N(Cc1ccc(-c3ccccn3)cc1)C[C@H](C)[C@H](OC)CN(C)C2=O	inactive: 0.994
Cc1cc(C(=O)Nc2cccc3c2O[C@@H](CN(C)Cc2ccc(C(=O)O)cc2)[C@@H](C)CN([C@H](C)CO)C3=O)n(C)n1	inactive: 0.989
C[C@H]1CN([C@@H](C)CO)S(=O)(=O)c2ccc(C#CC3CC3)cc2O[C@@H]1CN(C)Cc1ccc(F)cc1	inactive: 1.03
O=C1O[C@H](CO)[C@@H](O)[C@H](O)[C@H]1O	inactive: 1.01
CC(C)N1C[C@H](CN(C)Cc2ccc(Oc3ccccc3)cc2)Oc2c(NC(=O)c3ccncc3)cccc2C1=O	inactive: 1.03
C[C@@H]1CCCCO[C@@H](CN(C)C(=O)CCC(F)(F)F)[C@H](C)CN([C@H](C)CO)C(=O)c2cc(NC(=O)NC3CCCCC3)ccc2O1	inactive: 1.03
C[C@@H]1CN([C@@H](C)CO)S(=O)(=O)c2ccc(C#Cc3ccncc3)cc2O[C@H]1CN(C)C(=O)C1CCOCC1	inactive: 0.999
CO[C@H]1CN(C)C(=O)c2ccc(NS(=O)(=O)c3cn(C)cn3)cc2OC[C@@H](C)N(CCC(F)(F)F)C[C@@H]1C	inactive: 0.944
C[C@H]1CN([C@@H](C)CO)S(=O)(=O)c2ccc(C#CCN(C)C)cc2O[C@@H]1CN(C)S(=O)(=O)c1cccc(F)c1	inactive: 1
COC[C@@H](O)CNc1ncnc2c1CCNCC2	inactive: 0.979
C/C(=N\N)c1ccc2ccccc2c1	inactive: 1.03
CN(C)CCCCNC(=O)[C@H]1C[C@H]2C(=O)N[C@@H](CCCCN(C)C)C(=O)N2[C@H]1c1cccc(OCCO)c1	inactive: 0.961
C[C@H]1CN([C@@H](C)CO)C(=O)c2c(c3ccccc3n2C)-c2ccccc2CO[C@@H]1CN(C)S(=O)(=O)c1ccc(C(F)(F)F)cc1	inactive: 1
C[C@@H]1CN([C@H](C)CO)C(=O)CCCn2nncc2CO[C@H]1CN(C)S(C)(=O)=O	inactive: 0.979
Cc1noc(C)c1NC(=O)Nc1ccc2c(c1)C(=O)N([C@@H](C)CO)C[C@H](C)[C@@H](CN(C)Cc1ccc(-c3ccccc3)cc1)O2	inactive: 0.997
Cc1ccc(S(=O)(=O)N(C)C[C@H]2Oc3c(NC(=O)Nc4ccc(C(F)(F)F)cc4)cccc3C(=O)N([C@H](C)CO)C[C@H]2C)cc1	inactive: 0.883
C[C@H](CO)N1C[C@H](C)[C@@H](CN(C)S(=O)(=O)c2ccc(F)cc2)OCCCC[C@H](C)Oc2ccc(NC(=O)CCC(F)(F)F)cc2C1=O	inactive: 1.01
CN(C)CCCNC(=O)C[C@@H]1C=C[C@H](NS(=O)(=O)c2ccccc2)[C@@H](CO)O1	inactive: 0.985
Cc1ccc(S(=O)(=O)N(C)C[C@@H]2Oc3ccc(NS(=O)(=O)c4cccs4)cc3C(=O)N([C@@H](C)CO)C[C@@H]2C)cc1	inactive: 1.01
O=C(O)CSC(=S)N1CCOCC1	inactive: 1.04

Compound	relative growth
C[C@H](CO)N1C[C@H](C)[C@H](CN(C)C(=O)Nc2ccc(C(F)(F)F)cc2)Oc2ccc(NC(=O)Cc3ccccc3)cc2C1=O	inactive: 0.977
O=C(O)c1ccc(OC[C@@H](O)CO[C@H](COc2ccc(C(=O)O)cc2)Cn2c3ccccc3c3ccccc32)cc1	inactive: 0.996
Cc1cc(F)ccc1S(=O)(=O)N1[C@@H]2CC[C@@H](C2)[C@H]1c1nc2cccc(OCc3ccc(F)cc3)c2[nH]1	inactive: 0.994
C[C@@H]1CCCCO[C@@H](CN(C)S(=O)(=O)c2ccccc2)[C@@H](C)CN([C@H](C)CO)C(=O)c2cc(NS(C)(=O)=O)ccc2O1	inactive: 0.965
Cc1noc(C)c1NC(=O)Nc1ccc2c(c1)C(=O)N([C@H](C)CO)C[C@@H](C)[C@H](CN(C)S(=O)(=O)c1cn(C)cn1)O2	inactive: 1.01
C[C@@H]1CN([C@@H](C)CO)C(=O)Cc2cc(NC(=O)Nc3ccccc3)ccc2O[C@@H]1CN(C)C(=O)Nc1ccc(C(F)(F)F)cc1	inactive: 1
CC1(C)C=Cc2cc3ccc(=O)oc3cc2O1	inactive: 1.02
Cc1ccccc1S(=O)(=O)N1C[C@@H](O)COC[C@@H]2O[C@H](CC(=O)N3CCC(Cc4ccccc4)CC3)CC[C@H]21	inactive: 1
O=C(C[C@@H]1C=C[C@H](NC(=O)CN2CCOCC2)[C@@H](CO)O1)NCCc1ccncc1	inactive: 0.995
CC(C)(C)OC(=O)CC[C@]12N=C(c3ccc(OCCCO)cc3)O[C@H]1c1ccccc1CN(Cc1ccccc1)C2=O	inactive: 1.01
O=c1ccc2ccccc2o1	inactive: 1.12
C[C@H](CO)N1C[C@H](C)[C@H](CN(C)Cc2ccncc2)Oc2c(NC(=O)Nc3ccc(C(F)(F)F)cc3)cccc2C1=O	inactive: 0.945
C[C@H](CO)N1C[C@H](C)[C@H](CN(C)S(=O)(=O)c2ccc(F)cc2)OCCCC[C@H](C)Oc2ccc(NC(=O)Nc3ccc(F)cc3)cc2C1=O	inactive: 1.01
CC(C)NC(=O)N(C)C[C@H]1Oc2c(NC(=O)NC3CCCCC3)cccc2C(=O)N([C@H](C)CO)C[C@@H]1C	inactive: 0.984
C[C@H](CO)N1C[C@H](C)[C@H](CN(C)C(=O)C2CC2)Oc2cc(-c3ccc(C(=O)N(C)C)cc3)ccc2S1(=O)=O	inactive: 0.976
C=CCNC(=O)[C@H]1[C@@H]2C(=O)O[C@@H](c3ccccc3)[C@@H](c3ccccc3)N2[C@@H](c2ccc(OCCO)cc2)[C@]12C(=O)Nc1ccc(C#Cc3ccc(OC)cc3)cc12	inactive: 1.08
C[C@@H]1CN([C@H](C)CO)C(=O)c2cc(NS(=O)(=O)c3ccc(Cl)cc3)ccc2O[C@@H](C)CCCCO[C@@H]1CN(C)S(=O)(=O)c1ccccc1	inactive: 1.05
CC(C)NC(=O)Nc1ccc2c(c1)C(=O)N([C@@H](C)CO)C[C@H](C)[C@@H](CN(C)S(=O)(=O)c1cn(C)cn1)O2	inactive: 0.98
C[C@H](CO)N1C[C@H](C)[C@@H](CN(C)C(=O)Nc2ccc3c(c2)OCO3)OCCCC[C@H](C)Oc2ccc(NC(=O)Nc3ccc(F)cc3)cc2C1=O	inactive: 1.03
CC(C)NC(=O)Nc1ccc2c(c1)CC(=O)N([C@H](C)CO)C[C@@H](C)[C@@H](CN(C)Cc1ccc(-c3ccccc3)cc1)O2	inactive: 0.973
C[C@@H]1CN([C@H](C)CO)C(=O)c2cc(NC(=O)CCCN(C)C)ccc2O[C@H]1CN(C)S(=O)(=O)c1ccc(F)cc1	inactive: 0.978

Compound	relative growth
C[C@@H]1CCCCO[C@@H](CN(C)S(=O)(=O)c2ccc(F)cc2)[C@H](C)CN([C@@H](C)CO)C(=O)c2cc(NC(=O)Nc3ccc(C(F)(F)F)cc3)ccc2O1	inactive: 1.03
CN(C)Cc1ccc([C@@H](N)c2ccncc2)cc1	inactive: 0.968
C[C@@H]1CN([C@@H](C)CO)S(=O)(=O)c2ccc(C#Cc3ccccc3)cc2O[C@@H]1CN(C)C(=O)CN(C)C	inactive: 1.01
C[C@@H]1CN([C@H](C)CO)S(=O)(=O)c2ccc(-c3cccc(C#N)c3)cc2O[C@@H]1CN(C)C(=O)c1ccncc1	inactive: 1
C[C@H]1CCCCO[C@H](CN(C)S(=O)(=O)c2ccc(F)cc2)[C@@H](C)CN([C@@H](C)CO)C(=O)c2cc(NC(=O)c3ccccc3)ccc2O1	inactive: 1.02
Cc1noc(C)c1S(=O)(=O)N(C)C[C@H]1Oc2ccc(N(C)C)cc2CC(=O)N([C@H](C)CO)C[C@H]1C	inactive: 0.994
Cc1nccn1CCN	inactive: 0.987
Clc1ccc(C(c2ccc(Cl)cc2)[n+]2ccn(C[C@@H](OCc3ccc(Cl)cc3Cl)c3ccc(Cl)cc3Cl)c2)cc1	inactive: 0.421
CCN(CC)c1ccc(CN)cn1	inactive: 0.975
C[C@@H]1CCCCO[C@@H](CN(C)C(=O)Nc2ccc(F)cc2)[C@@H](C)CN([C@@H](C)CO)C(=O)c2cc(NC(=O)C3CCCCC3)ccc2O1	inactive: 0.998
C[C@@H]1CN([C@@H](C)CO)C(=O)Cc2cc(NC(=O)Cn3cnnn3)ccc2O[C@H]1CN(C)C(=O)NC1CCCCC1	inactive: 0.995
Cc1noc(C)c1S(=O)(=O)Nc1cccc2c1O[C@H](CN(C)Cc1ccc(Oc3ccccc3)cc1)[C@H](C)CN([C@@H](C)CO)C2=O	inactive: 0.972
C[C@@H]1CCCCO[C@H](CN(C)Cc2ccc3c(c2)OCO3)[C@H](C)CN([C@H](C)CO)C(=O)c2cc(NS(=O)(=O)c3ccc(F)cc3)ccc2O1	inactive: 1.01
c1cc(-c2nnc(Cn3cncn3)[nH]2)ccn1	inactive: 0.923
COc1ccc(S(=O)(=O)N(C)C[C@H]2Oc3ccc(NS(C)(=O)=O)cc3C(=O)N([C@H](C)CO)C[C@H]2C)cc1	inactive: 0.999
C[C@@H]1CN([C@H](C)CO)C(=O)c2cccc(NC(=O)C3CCOCC3)c2O[C@@H]1CN(C)S(=O)(=O)c1ccccc1	inactive: 1
CCCNC(=O)C[C@H]1CC[C@H]2[C@@H](COc3ccc(NS(=O)(=O)c4ccccc4C)cc3C(=O)N2C)O1	inactive: 1
CC(C)NC(=O)Nc1ccc2c(c1)C(=O)N([C@H](C)CO)C[C@H](C)[C@@H](CN(C)C(=O)Nc1ccc(F)cc1)OCCCC[C@H](C)O2	inactive: 0.995
Cc1noc(C)c1NC(=O)N(C)C[C@@H]1Oc2ccc(NS(=O)(=O)c3ccccc3)cc2C(=O)N([C@H](C)CO)C[C@H]1C	inactive: 0.995
COCC(=O)Nc1ccc2c(c1)C(=O)N(C)[C@@H]1CC[C@H](CC(=O)NCc3ccc(OC)cc3)O[C@@H]1CO2	inactive: 1
